# The other results are listed elsewhere or left out.
# B1: SP8524D-bot-399-27-399 (Bacteroides ovatus) (protein)
# chain: DAKYDTLDTHAYIEEALSSTSQKVTVQATGESFTTLNVHLSNLSSTDNHYKLVTDQSVLDTYNHINGTGYIMLPKDYYTLPETITVKAGQYAADALSIALKAFSQEMMKSGESYALPVKLVLQDGSISPMENTGTFVILAESIIEFSAPMFVGAPSLKANKFTESPETYSQYTIEVRFQVANTADRDRAVFKNGGDDANFILLRFEDPQSDNENYKAHSLVQIVGRNRLYLNPSNSFKPNEWQHLALVCDGSNYRLYINGVDSGVLSIPTGATTFSDVNWFCLGDDSYSRWGNCKILMSEARIWSVVRSASQIQNNMTQVSPKSVGLEAYWRFNEGQGNVFEDATGKGHTLTTSATPTWIDGILSTDKSTEWK
# How the values were obtained:
# Experiment in all cases: glycan array binding signal (z-score within array); higher = stronger binding
# Settings in all cases: glycan notation: IUPAC condensed, linker removed
# [1] = biological target: Gal(b1-4)GlcNAc(b1-2)[Gal(b1-4)GlcNAc(b1-6)]Man(a1-6)[GlcNAc(b1-4)][Gal(b1-4)GlcNAc(b1-2)Man(a1-3)]Man(b1-4)GlcNAc(b1-4)GlcNAc
# Method in brief: (§1)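 From the Consortium for Functional Glycomics database, 3228 arrays were curated, keeping only those whose protein sequence was available. Binding is given as a within-array Z-score averaged across arrays sharing a protein sequence and across linkers. Negative Z-scores can be read as non-binding.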
# [2] = biological target: Gal(b1-4)GlcNAc(b1-2)[Gal(b1-4)GlcNAc(b1-6)]Man(a1-6)[GlcNAc(b1-4)][Gal(b1-4)GlcNAc(b1-2)[Gal(b1-4)GlcNAc(b1-4)]Man(a1-3)]Man(b1-4)GlcNAc(b1-4)[Fuc(a1-6)]GlcNAc
# Method in brief: as §1
# [3] = biological target: Gal(b1-4)GlcNAc(b1-3)Gal(b1-3)GalNAc
# Method in brief: as §1
# [4] = biological target: Gal(b1-4)GlcNAc(b1-3)Gal(b1-3)GlcNAc
# Method in brief: as §1
# [5] = biological target: Gal(b1-4)GlcNAc(b1-3)Gal(b1-4)Glc
# Method in brief: as §1
# [6] = biological target: Gal(b1-4)GlcNAc(b1-3)Gal(b1-4)GlcNAc
# Method in brief: as §1
# [7] = biological target: Gal(b1-4)GlcNAc(b1-3)Gal(b1-4)GlcNAc(b1-2)Man(a1-3)[Gal(b1-4)GlcNAc(b1-3)Gal(b1-4)GlcNAc(b1-2)Man(a1-6)]Man(b1-4)GlcNAc(b1-4)GlcNAc
# Method in brief: as §1
# [8] = biological target: Gal(b1-4)GlcNAc(b1-3)Gal(b1-4)GlcNAc(b1-2)Man(a1-3)[Gal(b1-4)GlcNAc(b1-3)Gal(b1-4)GlcNAc(b1-2)Man(a1-6)]Man(b1-4)GlcNAc(b1-4)[Fuc(a1-6)]GlcNAc
# Method in brief: as §1
# [9] = biological target: Gal(b1-4)GlcNAc(b1-3)Gal(b1-4)GlcNAc(b1-2)[Gal(b1-4)GlcNAc(b1-3)Gal(b1-4)GlcNAc(b1-6)]Man(a1-6)[Gal(b1-4)GlcNAc(b1-3)Gal(b1-4)GlcNAc(b1-2)Man(a1-3)]Man(b1-4)GlcNAc(b1-4)GlcNAc
# Method in brief: as §1
# [10] = biological target: Gal(b1-4)GlcNAc(b1-3)Gal(b1-4)GlcNAc(b1-2)[Gal(b1-4)GlcNAc(b1-3)Gal(b1-4)GlcNAc(b1-6)]Man(a1-6)[Gal(b1-4)GlcNAc(b1-3)Gal(b1-4)GlcNAc(b1-2)Man(a1-3)]Man(b1-4)GlcNAc(b1-4)[Fuc(a1-6)]GlcNAc
# Method in brief: as §1
# [11] = biological target: Gal(b1-4)GlcNAc(b1-3)Gal(b1-4)GlcNAc(b1-3)Gal(b1-4)GlcNAc
# Method in brief: as §1
# [12] = biological target: Gal(b1-4)GlcNAc(b1-3)Gal(b1-4)GlcNAc(b1-3)Gal(b1-4)GlcNAc(b1-2)Man(a1-3)[Gal(b1-4)GlcNAc(b1-3)Gal(b1-4)GlcNAc(b1-3)Gal(b1-4)GlcNAc(b1-2)Man(a1-6)]Man(b1-4)GlcNAc(b1-4)GlcNAc
# Method in brief: as §1
# [13] = biological target: Gal(b1-4)GlcNAc(b1-3)Gal(b1-4)GlcNAc(b1-3)Gal(b1-4)GlcNAc(b1-2)Man(a1-3)[Gal(b1-4)GlcNAc(b1-3)Gal(b1-4)GlcNAc(b1-3)Gal(b1-4)GlcNAc(b1-2)Man(a1-6)]Man(b1-4)GlcNAc(b1-4)[Fuc(a1-6)]GlcNAc
# Method in brief: as §1
# [14] = biological target: Gal(b1-4)GlcNAc(b1-3)Gal(b1-4)GlcNAc(b1-3)Gal(b1-4)GlcNAc(b1-2)[Gal(b1-4)GlcNAc(b1-3)Gal(b1-4)GlcNAc(b1-3)Gal(b1-4)GlcNAc(b1-6)]Man(a1-6)[Gal(b1-4)GlcNAc(b1-3)Gal(b1-4)GlcNAc(b1-3)Gal(b1-4)GlcNAc(b1-2)Man(a1-3)]Man(b1-4)GlcNAc(b1-4)[Fuc(a1-6)]GlcNAc
# Method in brief: as §1
# [15] = biological target: Gal(b1-4)GlcNAc(b1-3)Gal(b1-4)GlcNAc(b1-3)Gal(b1-4)GlcNAc(b1-3)Gal(b1-4)GlcNAc(b1-2)Man(a1-3)[Gal(b1-4)GlcNAc(b1-3)Gal(b1-4)GlcNAc(b1-3)Gal(b1-4)GlcNAc(b1-3)Gal(b1-4)GlcNAc(b1-2)Man(a1-6)]Man(b1-4)GlcNAc(b1-4)GlcNAc
# Method in brief: as §1
# [16] = biological target: Gal(b1-4)GlcNAc(b1-3)Gal(b1-4)GlcNAc(b1-3)Gal(b1-4)GlcNAc(b1-3)Gal(b1-4)GlcNAc(b1-2)Man(a1-3)[Gal(b1-4)GlcNAc(b1-3)Gal(b1-4)GlcNAc(b1-3)Gal(b1-4)GlcNAc(b1-3)Gal(b1-4)GlcNAc(b1-2)Man(a1-6)]Man(b1-4)GlcNAc(b1-4)[Fuc(a1-6)]GlcNAc
# Method in brief: as §1
# [17] = biological target: Gal(b1-4)GlcNAc(b1-3)Gal(b1-4)GlcNAc(b1-3)Gal(b1-4)GlcNAc(b1-3)Gal(b1-4)GlcNAc(b1-2)[Gal(b1-4)GlcNAc(b1-3)Gal(b1-4)GlcNAc(b1-3)Gal(b1-4)GlcNAc(b1-3)Gal(b1-4)GlcNAc(b1-6)]Man(a1-6)[Gal(b1-4)GlcNAc(b1-3)Gal(b1-4)GlcNAc(b1-3)Gal(b1-4)GlcNAc(b1-3)Gal(b1-4)GlcNAc(b1-2)Man(a1-3)]Man(b1-4)GlcNAc(b1-4)[Fuc(a1-6)]GlcNAc
# Method in brief: as §1
# [18] = biological target: Gal(b1-4)GlcNAc(b1-3)Gal(b1-4)GlcNAc(b1-3)Gal(b1-4)GlcNAc(b1-3)Gal(b1-4)GlcNAc(b1-3)Gal(b1-4)GlcNAc(b1-2)Man(a1-3)[Gal(b1-4)GlcNAc(b1-3)Gal(b1-4)GlcNAc(b1-3)Gal(b1-4)GlcNAc(b1-3)Gal(b1-4)GlcNAc(b1-3)Gal(b1-4)GlcNAc(b1-2)Man(a1-6)]Man(b1-4)GlcNAc(b1-4)GlcNAc
# Method in brief: as §1
# [19] = biological target: Gal(b1-4)GlcNAc(b1-3)Gal(b1-4)GlcNAc(b1-3)Gal(b1-4)GlcNAc(b1-3)Gal(b1-4)GlcNAc(b1-3)Gal(b1-4)GlcNAc(b1-2)Man(a1-3)[Gal(b1-4)GlcNAc(b1-3)Gal(b1-4)GlcNAc(b1-3)Gal(b1-4)GlcNAc(b1-3)Gal(b1-4)GlcNAc(b1-3)Gal(b1-4)GlcNAc(b1-2)Man(a1-6)]Man(b1-4)GlcNAc(b1-4)[Fuc(a1-6)]GlcNAc
# Method in brief: as §1
# [20] = biological target: Gal(b1-4)GlcNAc(b1-3)Gal(b1-4)GlcNAc(b1-3)Gal(b1-4)GlcNAc(b1-3)Gal(b1-4)GlcNAc(b1-3)Gal(b1-4)GlcNAc(b1-2)[Gal(b1-4)GlcNAc(b1-3)Gal(b1-4)GlcNAc(b1-3)Gal(b1-4)GlcNAc(b1-3)Gal(b1-4)GlcNAc(b1-3)Gal(b1-4)GlcNAc(b1-6)]Man(a1-6)[Gal(b1-4)GlcNAc(b1-3)Gal(b1-4)GlcNAc(b1-3)Gal(b1-4)GlcNAc(b1-3)Gal(b1-4)GlcNAc(b1-3)Gal(b1-4)GlcNAc(b1-2)Man(a1-3)]Man(b1-4)GlcNAc(b1-4)[Fuc(a1-6)]GlcNAc
# Method in brief: as §1
# [21] = biological target: Gal(b1-4)GlcNAc(b1-3)Gal(b1-4)GlcNAc(b1-3)Gal(b1-4)GlcNAc(b1-3)Gal(b1-4)GlcNAc(b1-3)Gal(b1-4)GlcNAc(b1-3)Gal(b1-4)GlcNAc(b1-2)Man(a1-3)[Gal(b1-4)GlcNAc(b1-3)Gal(b1-4)GlcNAc(b1-3)Gal(b1-4)GlcNAc(b1-3)Gal(b1-4)GlcNAc(b1-3)Gal(b1-4)GlcNAc(b1-3)Gal(b1-4)GlcNAc(b1-2)Man(a1-6)]Man(b1-4)GlcNAc(b1-4)GlcNAc
# Method in brief: as §1
# [22] = biological target: Gal(b1-4)GlcNAc(b1-3)Gal(b1-4)GlcNAc(b1-3)GalNAc
# Method in brief: as §1
# [23] = biological target: Gal(b1-4)GlcNAc(b1-3)Gal(b1-4)GlcNAc(b1-3)[Gal(b1-4)GlcNAc(b1-3)Gal(b1-4)GlcNAc(b1-6)]GalNAc
# Method in brief: as §1
# [24] = biological target: Gal(b1-4)GlcNAc(b1-3)Gal(b1-4)GlcNAc(b1-6)[Gal(b1-3)]GalNAc
# Method in brief: as §1
# [25] = biological target: Gal(b1-4)GlcNAc(b1-3)Gal(b1-4)[Fuc(a1-3)]GlcNAc(b1-3)Gal(b1-4)[Fuc(a1-3)]GlcNAc
# Method in brief: as §1
# [26] = biological target: Gal(b1-4)GlcNAc(b1-3)GalNAc
# Method in brief: as §1
# [27] = biological target: Gal(b1-4)GlcNAc(b1-3)[Fuc(a1-3)GlcNAc(b1-6)]Gal(b1-4)Glc
# Method in brief: as §1
# [28] = biological target: Gal(b1-4)GlcNAc(b1-3)[Gal(b1-4)GlcNAc(b1-6)]Gal(b1-4)GlcNAc
# Method in brief: as §1
# [29] = biological target: Gal(b1-4)GlcNAc(b1-3)[GlcNAc(b1-6)]Gal(b1-4)GlcNAc
# Method in brief: as §1
# [30] = biological target: Gal(b1-4)GlcNAc(b1-6)Gal(b1-4)GlcNAc
# Method in brief: as §1
# [31] = biological target: Gal(b1-4)GlcNAc(b1-6)GalNAc
# Method in brief: as §1
# [32] = biological target: Gal(b1-4)GlcNAc(b1-6)[Gal(b1-3)]GalNAc
# Method in brief: as §1
# [33] = biological target: Gal(b1-4)GlcNAc(b1-6)[Gal(b1-4)GlcNAc(b1-3)]GalNAc
# Method in brief: as §1
# Gal(b1-4)GlcNAc6P = biological target: Gal(b1-4)GlcNAc6P
# Method in brief: as §1
# Gal(b1-6)Gal = biological target: Gal(b1-6)Gal
# Method in brief: as §1
# Gal3S(b1-3)GalNAc = biological target: Gal3S(b1-3)GalNAc
# Method in brief: as §1
# Gal3S(b1-3)GlcNAc = biological target: Gal3S(b1-3)GlcNAc
# Method in brief: as §1
# [34] = biological target: Gal3S(b1-3)[Fuc(a1-4)]GlcNAc
# Method in brief: as §1
binder,measurement,setting,value
B1,glycan array binding signal (z-score),[1],-0.429
same,glycan array binding signal (z-score),[2],-0.263
same,glycan array binding signal (z-score),[3],-0.331
same,glycan array binding signal (z-score),[4],-0.454
same,glycan array binding signal (z-score),[5],0.042
same,glycan array binding signal (z-score),[6],-0.362
same,glycan array binding signal (z-score),[7],0.012
same,glycan array binding signal (z-score),[8],0.109
same,glycan array binding signal (z-score),[9],-0.457
same,glycan array binding signal (z-score),[10],0.44
same,glycan array binding signal (z-score),[11],-0.084
same,glycan array binding signal (z-score),[12],0.447
same,glycan array binding signal (z-score),[13],-0.133
same,glycan array binding signal (z-score),[14],-0.015
same,glycan array binding signal (z-score),[15],0.135
same,glycan array binding signal (z-score),[16],-0.103
same,glycan array binding signal (z-score),[17],0.023
same,glycan array binding signal (z-score),[18],-0.119
same,glycan array binding signal (z-score),[19],0.303
same,glycan array binding signal (z-score),[20],1.02
same,glycan array binding signal (z-score),[21],0.202
same,glycan array binding signal (z-score),[22],-0.299
same,glycan array binding signal (z-score),[23],0.852
same,glycan array binding signal (z-score),[24],0.317
same,glycan array binding signal (z-score),[25],-0.36
same,glycan array binding signal (z-score),[26],-0.244
same,glycan array binding signal (z-score),[27],-0.173
same,glycan array binding signal (z-score),[28],-0.191
same,glycan array binding signal (z-score),[29],0.036
same,glycan array binding signal (z-score),[30],-0.199
same,glycan array binding signal (z-score),[31],-0.234
same,glycan array binding signal (z-score),[32],-0.037
same,glycan array binding signal (z-score),[33],-0.122
same,glycan array binding signal (z-score),Gal(b1-4)GlcNAc6P,-0.07
same,glycan array binding signal (z-score),Gal(b1-6)Gal,-0.143
same,glycan array binding signal (z-score),Gal3S(b1-3)GalNAc,-0.264
same,glycan array binding signal (z-score),Gal3S(b1-3)GlcNAc,-0.137
same,glycan array binding signal (z-score),[34],-0.37
